# Measurements reported in PubChem BioAssay AID463173 (ICCB-Longwood Screening Facility, Harvard Medical School, 2010).
# Screen size: about 52,000 compounds; about 4,300 (8.3%) were called active. No stated cut-off is given here; in the data, active means survival mostly below about 52% (no sharp cut-off); inactive means mostly above about 56%. The list shows a part of the results.
# System: DeltatarO mutant
# Assay: S. aureus survival, RN4220 and DeltatarO strains – OD600, teichoic acid synthesis inhibitors, primary screen (AID 463173)
# Details: S. aureus RN4220 wild type/DeltatarO growth, OD600, 18 h, hits give low values, screened at 18.75 µg/mL (by protocol)
row,SMILES,survival
1,Cc1ccc2nc(N(Cc3cccnc3)C(=O)C3CCCCC3)sc2c1,inactive: 98%
2,COc1ccc(Br)cc1C1CC(=O)Nc2c1c(C)nn2-c1nc(C)cc(C)n1 (stereo not given),inactive: 58%
3,CCn1cc(C(=O)OCC(=O)Nc2cc(Cl)ccc2OC)c(=O)c2ccc(C)nc21,inactive: 81%
4,Cc1cccc(NC(=O)Cn2c(=O)oc3cc(S(=O)(=O)NCc4ccccc4)ccc32)c1,inactive: 95%
5,COc1ccc(NC(c2ccc(F)cc2)c2nnc(-c3ccccc3Cl)o2)cc1Cl (stereo not given),inactive: 78%
6,CC(NC(=O)CN(C)S(=O)(=O)c1ccc2c(c1)c(=O)n(C)c(=O)n2C)c1ccccc1 (stereo not given),inactive: 88%
7,Cc1oc(-c2ccc(C(=O)NCc3ccc(N(C)C)cc3)cc2)nc1COc1ccccc1,inactive: 61%
8,Cc1ccc2c(c1)c(=O)c(C(=O)c1ccncc1)cn2CC(=O)Nc1c(C)cccc1C,inactive: 83%
9,Cn1cc(S(=O)(=O)N2CCCCC2)cc1C(=O)N1CCN(c2ccc(F)cc2)CC1,inactive: 55%
10,Cc1cc(=O)n(CC(=O)NCCC(C)C)c2c1c(C)nn2C,inactive: 75%
11,Cc1ccc(C)c(S(=O)(=O)c2cnc(SCC(=O)Nc3ccc(F)cc3F)[nH]c2=O)c1,active: 43%
12,CCc1ccc(NC(=O)CSc2nccn2C2CCCC2)cc1,inactive: 70%
13,Cc1ccc2oc(C(=O)Nc3nnc(CC(C)C)s3)cc(=O)c2c1,inactive: 63%
14,O=C(CN(c1cccc(Br)c1)S(=O)(=O)c1ccccc1)N1CCOCC1,inactive: 73%
15,CCN(CC)c1cc(C)nc2nc(-c3ccc(C)cc3)nn12,active: 43%
16,Cc1ccc(CN2CCSc3ccc(C(=O)Nc4ccc(F)cc4F)cc32)cc1,inactive: 80%
17,COc1ccc(N2CCN(C(=O)c3cc4c(=O)n(Cc5ccccc5)ccc4nc3C)CC2)cc1,inactive: 95%
18,CCc1ccc2nc(N3CCC(C(=O)O)CC3)sc2c1,inactive: 82%
19,COc1cc(CNCc2c(C(=O)O)c(C)n(Cc3cccc(Cl)c3)c2C)cc(OC)c1OC,inactive: 86%
20,COc1ccc(Br)cc1CNC(=O)C(C)n1nc(C)n2c(cc3occc32)c1=O (stereo not given),active: 46%
21,CCC(C(=O)N1CCN(c2cc(Cl)ccc2C)CC1)n1nc(C)n2c(cc3occc32)c1=O (stereo not given),inactive: 69%
22,CCSc1nc2n(n1)C(c1ccc(CC)cc1)C(C(=O)Nc1ccccc1OC)=C(C)N2 (stereo not given),inactive: 78%
23,Cc1c(Cl)cccc1-n1c(CCC(=O)O)ccc1-c1cccs1,active: 35%

row,SMILES,survival
1,CCc1cccc(NC(=O)CN2C(=O)CCc3cc(S(=O)(=O)N4CCOCC4)ccc32)c1,inactive: 79%
2,CCOc1ccc(C(=O)NCc2ccc3c(c2)CCN3C(=O)c2ccccc2)cc1,active: -2%
3,COc1ccc(-c2onc(C)c2C)cc1S(=O)(=O)NCc1ccco1,inactive: 67%
4,CCc1ccc(CNC(=O)c2ccc3c(c2)nc2n3CCC(C)C2)cc1 (stereo not given),inactive: 117%
5,COc1cccc(C(=O)Nc2cccc(OCc3cc(=O)n4cc(C)ccc4n3)c2)c1,inactive: 92%
6,CCCCc1nn2c(=O)cc(COC(=O)COc3ccc(C)cc3)nc2s1,inactive: 83%
7,COc1ccc(C)cc1NC(=O)CN(c1ccccc1)S(=O)(=O)N(C)C,inactive: 78%
8,Cc1nc2ccc(NC(=O)NCCCO)cc2s1,inactive: 74%
9,COc1ccc(NC(=O)CN2C(=O)COc3ccc(S(=O)(=O)Nc4ccccc4)cc32)cc1,inactive: 96%
10,CCOC(=O)CN1C(=O)c2ccccc2Sc2ncccc21,inactive: 90%
11,COc1ccccc1N(CC(=O)NCCSCc1ccccc1)S(C)(=O)=O,inactive: 70%
12,CCCCc1nn2c(=O)cc(COC(=O)c3cccc(OC)c3)nc2s1,inactive: 117%
13,COc1ccc2c(c1)cc1c(=O)n(CC(=O)NCc3ccco3)nc(C)n12,inactive: 67%
14,COc1ccc(-c2cc(C(F)(F)F)nc(SCC(=O)NCc3ccc(OC)c(OC)c3)n2)cc1,inactive: 60%
15,CCOC(=O)c1ccc(NC(=O)C2CC(=O)NC(Nc3nc4ccccc4s3)=N2)cc1 (stereo not given),inactive: 94%
16,CCc1nnc2c(Nc3cccc(C(C)=O)c3)nc3ccccc3n12,inactive: 92%
17,O=C1C2C3c4ccccc4C(c4ccccc43)C2C(=O)N1C(CO)(CO)CO (stereo not given),inactive: 102%
18,CCCOc1ccc(C(=O)Nc2cccc(NC(=O)c3cccc(Cl)c3)c2)cc1,inactive: 70%
19,CCCCNC(=O)C1CCN(c2nc(OC)nc(OC)n2)CC1,inactive: 83%
20,CCS(=O)(=O)c1ncc(N(Cc2ccco2)Cc2sccc2C)c(C(=O)Nc2ccc(C)cc2C)n1,active: 53%
21,CCC12CN3CC(C)(CN(C1)C3c1c[nH]c3ccccc13)C2=O (stereo not given),inactive: 82%
22,COc1ccc(/C=C\c2onc(C)c2S(=O)(=O)N2CCC(C(=O)Nc3ccc(C)cc3C)CC2)cc1,inactive: 60%
23,CCc1ccc(NC(=O)CSC2=Nc3ccccc3C3=NC(CCC(=O)NCCc4ccccc4)C(=O)N23)cc1 (stereo not given),inactive: 81%

row,SMILES,survival
1,CC1=C(C(=O)Nc2ccc(C)cc2C)C(c2ccc(O)cc2)n2nnnc2N1 (stereo not given),inactive: 73%
2,O=C(Nc1ccc(F)cc1Cl)n1ncc2cc(Cl)ccc21,active: 13%
3,CCC(=O)N1CCc2cc(S(=O)(=O)NC(CC(C)C)C(=O)Nc3cc(C)ccc3OC)ccc21 (stereo not given),inactive: 76%
4,Cc1cccc(NCc2nc3ccccc3n2CCOc2ccccc2C)c1,active: 3%
5,CC(C)N1C(=O)CSC1c1ccccc1 (stereo not given),inactive: 101%
6,COc1ccc(NC(=O)c2c(C)oc3ccc(O)c(CN4CCCC4)c23)cc1Cl,inactive: 80%
7,COc1cc(C(=O)n2nc(-c3ccco3)nc2NCc2ccc(Cl)cc2)cc(OC)c1OC,inactive: 82%
8,CC(=O)c1cccc(Nc2ccc3cc(S(=O)(=O)N4CCC(C)CC4)ccc3n2)c1,inactive: 92%
9,O=C(COc1ccccc1-c1nnc(-c2ccccc2)o1)Nc1ccc(Br)cc1F,inactive: 84%
10,CCC(=O)N1CCc2cc(S(=O)(=O)NCCC(=O)Nc3ccc(C)cc3)ccc21,inactive: 82%
11,CCCNC(=O)CCNS(=O)(=O)c1ccc2c(c1)c(=O)n(C)c(=O)n2C,inactive: 104%
12,CC1(C)CC(NCC(=O)NC2CC(C)(C)NC(C)(C)C2)CC(C)(C)N1,inactive: 103%
13,CC(C)c1ccc(-c2nnc3n(CCc4ccccc4)c(=O)c4ccccc4n23)cc1,inactive: 65%
14,Cc1ccc(CNC(=O)CCc2c(C)nc3nc(CNC(=O)OC(C)(C)C)nn3c2C)cc1,inactive: 82%
15,CC1CCC(NC(=O)C2(C)Cc3ccccc3C(=O)N2Cc2ccc(F)cc2)CC1 (stereo not given),inactive: 99%
16,COc1ccc(C(=O)NCCc2sc(-c3ccc(F)cc3)nc2C)cc1OC,inactive: 55%
17,CCC(C(=O)NC1CCCCC1)n1c(SCc2ccc(F)cc2)nc2ccncc21 (stereo not given),inactive: 73%
18,CCC(Cn1nnc2ccccc2c1=O)NC(=O)Nc1ccc(C)cc1C (stereo not given),active: 44%
19,COc1ccc(C(=O)NCC(c2ccc(N(C)C)cc2)N2CCCC2)c(OC)c1 (stereo not given),inactive: 94%
20,Cc1cccc(-c2nc(CSc3nncn4c3cc3oc(C)cc34)c(C)o2)c1,inactive: 71%
21,Cc1nc2cccnc2n1CCNC(=O)Nc1cccc2ccccc12,inactive: 99%
22,COc1ccccc1OCC(=O)Nc1nc2c(s1)CC(C)CC2 (stereo not given),inactive: 69%
23,CC(C)(C)OC(=O)N1CCC(n2nccc2N)CC1,inactive: 90%

row,SMILES,survival
1,CCSc1ncc(Cl)c(C(=O)Nc2c(C(=O)Nc3cccc(C)c3)oc3ccccc23)n1,inactive: 109%
2,COc1ccc(OC)c(CCNC(=O)c2cc3c(=O)oc4ccc(C)cc4c3s2)c1,inactive: 88%
3,CC(=O)Nc1ccc(NC(=O)C2CCCN2S(=O)(=O)c2ccc3c(c2)CCCC(=O)N3)cc1 (stereo not given),inactive: 70%
4,O=C(Nc1ccc(F)c(Cl)c1)c1cc(S(=O)(=O)N2CCc3ccccc3C2)ccc1F,inactive: 73%
5,O=C(Nc1ccc2nc(SCc3ccccc3)sc2c1)c1ccccc1F,inactive: 81%
6,CC1(C)CC(NC(=O)CCCC(=O)O)CC(C)(C)N1,inactive: 81%
7,COc1ccc(N2CCN(C(=O)CN3C(=O)CSc4c3c(C)nn4-c3ccccc3)CC2)cc1,inactive: 79%
8,O=C(Nc1ccc2oc(-c3cccnc3)nc2c1)c1ccc(-c2ccc(OC(F)(F)F)cc2)o1,inactive: 79%
9,Cc1ccc(OCC(=O)Nc2ccc3c(c2)nc(CCNC(=O)c2ccco2)n3C)cc1,inactive: 127%
10,CCCC(=O)n1nc(-c2ccco2)nc1NCc1ccccc1Cl,inactive: 76%
11,CC(C)CCNC(=O)c1ccc2c(c1)N(Cc1cccc(Cl)c1)C(=O)c1ccccc1S2,inactive: 83%
12,O=C(Nc1nnc(S(=O)(=O)N2CCOCC2)s1)c1ccccc1Cl,inactive: 79%
13,Cc1cc2nn(-c3ccc(F)cc3)nc2cc1NC(=O)c1cccc2ccccc12,inactive: 68%
14,Cc1cc(C)n2ncc(C(=O)Nc3ccc(C)c(C)c3)c2n1,inactive: 110%
15,Cc1nnc(N2CCCC(C(=O)NCc3ccccc3F)C2)c2nn(-c3ccc(Cl)cc3)c(C)c12 (stereo not given),inactive: 89%
16,COc1ccc(C(=O)NCc2nnc(SCC(=O)Nc3ccccc3)n2-c2ccccc2)cc1,inactive: 85%
17,O=C(CSc1n[nH]c(-c2ccccc2)n1)NCCCc1ccccc1,inactive: 92%
18,Cc1ccc(-n2nnc(-c3nsc(NC(=O)c4cccc(Cl)c4)n3)c2C)cc1C,inactive: 76%
19,COc1cc(Cl)c(C)cc1NC(=O)c1ccc2c(SCC(=O)O)c3c(nc2c1)CCCC3,active: 41%
20,Cc1ccccc1N1CC(C(=O)Nc2ccc(Br)cc2)CC1=O (stereo not given),inactive: 130%
21,COCCCNc1nc2cc(OC)c(OC)cc2c2nc(-c3ccccc3)nn12,active: 47%
